Measurements from the supplement of paper PMC3334620.
The full ranking holds about 33,000 sequences; the median of “E-score (-0.5 to 0.5)” is about -0.035, and the highest 2% start at about 0.35. This is one part of the list.

molecular target: T1, Pdr3 (UniProt P33200); assay: PBM E-score (8-mer binding enrichment) (E-score (-0.5 to 0.5)); higher = stronger / more preferred TF binding; most listed sequences are background and not binding sites; settings: protein concentration: 200 nM; construct: GST-full length
T1 sequence: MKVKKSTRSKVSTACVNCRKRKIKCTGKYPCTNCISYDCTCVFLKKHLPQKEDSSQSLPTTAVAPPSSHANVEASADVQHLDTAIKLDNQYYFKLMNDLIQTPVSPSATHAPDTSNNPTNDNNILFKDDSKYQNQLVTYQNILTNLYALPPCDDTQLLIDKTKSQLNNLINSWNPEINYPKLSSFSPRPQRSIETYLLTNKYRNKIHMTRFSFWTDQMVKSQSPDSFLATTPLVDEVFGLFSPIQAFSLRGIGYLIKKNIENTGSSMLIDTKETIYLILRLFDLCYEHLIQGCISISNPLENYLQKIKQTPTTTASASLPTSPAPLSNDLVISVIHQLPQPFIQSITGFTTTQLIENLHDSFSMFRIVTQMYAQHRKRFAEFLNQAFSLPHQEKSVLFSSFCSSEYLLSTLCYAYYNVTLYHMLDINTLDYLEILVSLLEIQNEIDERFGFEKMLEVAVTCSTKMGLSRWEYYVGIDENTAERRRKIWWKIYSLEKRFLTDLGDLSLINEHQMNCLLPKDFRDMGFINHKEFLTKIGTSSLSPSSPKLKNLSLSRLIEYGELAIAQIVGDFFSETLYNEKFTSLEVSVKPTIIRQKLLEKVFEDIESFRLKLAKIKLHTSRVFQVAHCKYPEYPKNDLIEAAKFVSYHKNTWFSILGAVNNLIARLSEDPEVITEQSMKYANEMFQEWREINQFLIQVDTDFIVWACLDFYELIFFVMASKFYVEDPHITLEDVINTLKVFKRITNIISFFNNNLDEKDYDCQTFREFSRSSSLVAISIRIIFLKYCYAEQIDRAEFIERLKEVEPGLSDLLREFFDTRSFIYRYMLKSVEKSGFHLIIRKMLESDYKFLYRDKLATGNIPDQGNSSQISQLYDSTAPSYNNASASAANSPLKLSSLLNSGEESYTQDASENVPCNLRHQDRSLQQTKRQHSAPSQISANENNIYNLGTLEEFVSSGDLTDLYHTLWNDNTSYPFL
Outline: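 The E-score, a modified Wilcoxon-Mann-Whitney statistic, was computed by the Universal PBM Analysis Suite for every ungapped eight-base word pooled with its reverse complement. Scans behind it were normalised with masliner after bound GST-tagged yeast transcription factors were detected with fluorescent anti-GST. The proteins, at about 100-200 nM, had been applied to universal all-10-mer Agilent arrays made double-stranded by primer extension.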

| Sequence | PBM E-score |
| --- | --- |
| ATTGAATA | 0.0411 |
| CGAACGGC | 0.177 |
| ATTATGAG | -0.168 |
| ATCCACAG | 0.00018 |
| AGTCTTCA | -0.23 |
| AGTAGGGG | 0.142 |
| AACGAGGC | -0.0717 |
| AAAGTTGT | 0.123 |
| AGGTCGGA | 0.265 |
| TGCTTAAA | -0.0433 |
| GCCCTTCA | -0.183 |
| CATGTATC | -0.0104 |
| CGGTATCA | 0.166 |
| CCAACGGG | 0.213 |
| GACGTCCC | 0.0169 |
| AGAACATG | -0.0666 |
| CGGCTGCC | 0.25 |
| AGGATGTG | -0.09 |
| ACGGGCCG | 0.0755 |
| TCCAGTCA | -0.103 |
| GATTTAGC | 0.00489 |
| TAAACCAA | -0.263 |
| ATTTACTC | -0.0415 |
| AGCGTAAT | -0.0873 |
| GAGTCTTA | -0.308 |

| Sequence | PBM E-score |
| --- | --- |
| GGTCTCCA | -0.156 |
| AATTACGA | -0.0333 |
| CCTTGACG | -0.0381 |
| CACAAGGG | -0.214 |
| AGGTGGCC | -0.0873 |
| ATAAGTAG | -0.147 |
| AGTGGGAC | -0.0707 |
| ACACAGGT | -0.241 |
| CTTATCTA | -0.09 |
| ATGCGAAA | 0.0602 |
| CCTTCCAG | -0.256 |
| GGCCCGCA | 0.163 |
| AGATGCCA | -0.138 |
| AATGAAGA | 0.0481 |
| AGAGCGTG | 0.0318 |
| CCATGACC | -0.162 |
| AGCCGCGC | 0.236 |
| CCTAGTTC | 0.00624 |
| CAATGCGG | 0.0978 |
| AAGTATAG | -0.144 |
| CACTAGGG | -0.187 |
| GGACACAC | 0.225 |
| AGTACAAC | 0.0179 |
| ACTCAGGG | -0.112 |
| CGAGCGCG | 0.273 |

| Sequence | PBM E-score |
| --- | --- |
| CACACCAA | 0.0361 |
| GCCACCAA | -0.0361 |
| ATGTCATA | 0.0201 |
| GTTCTAGA | -0.0376 |
| CTGCTCCA | -0.0375 |
| AGCTTTTG | -0.264 |
| TCGTCGAA | -0.36 |
| ACTCGTCG | -0.144 |
| TATTTTCA | 0.109 |
| AGCTACCT | 0.0102 |
| TCTGGGAA | -0.101 |
| ATTGCGAG | 0.0487 |
| AATCGACA | 0.169 |
| AAGATCGG | 0.238 |
| GCGGTAAC | 0.232 |
| AAAACGTG | -0.276 |
| GCCGCGCA | 0.188 |
| ACTCAGGA | -0.0325 |
| CCTATGGC | -0.0642 |
| AAACGGTC | 0.105 |
| AGAATGGG | -0.0867 |
| GGCCGAAA | 0.199 |
| CTCCTTGC | -0.152 |
| AACGAAGA | -0.0494 |
| CCCTTAGC | -0.0546 |

| Sequence | PBM E-score |
| --- | --- |
| CGTTAAAC | -0.0721 |
| CACTAAAA | 0.0916 |
| TATGATCA | -0.0608 |
| AGAGGTAA | -0.217 |
| GATCCGAA | 0.365 |
| ATGGAACA | -0.0996 |
| AGGGAAAC | -0.104 |
| GGCCGCAC | 0.2 |
| GATGTAAA | -0.118 |
| TCGTAACA | -0.0457 |
| AATCCCGT | 0.409 |
| GGAAAAGA | 0.112 |
| ATTACGGA | 0.361 |
| AGGATCTA | -0.352 |
| CTCCGGAA | 0.441 |
| GACTACGC | -0.0705 |
| ACTATCCG | 0.316 |
| ATATTTGG | -0.129 |
| CGATGGAC | 0.129 |
| AATTCAAC | 0.204 |
| ATAACAAG | 0.174 |
| AAAGGTAA | -0.256 |
| CCTACAGG | -0.184 |
| TCTTTCCA | 0.0128 |
| CCAGCCCG | 0.176 |

| Sequence | PBM E-score |
| --- | --- |
| AATCGGCA | 0.191 |
| CAAAAGAG | -0.185 |
| GGCAGTGA | -0.135 |
| AAAAGTTA | -0.166 |
| ACTTTCGA | -0.0188 |
| GCGTACGC | -0.0541 |
| GGGCAGAC | -0.118 |
| CACCGGCC | 0.108 |
| CTCACTGA | -0.198 |
| TCTCCCCA | -0.0624 |
| ATGCCGGA | 0.405 |
| GGCCGGTA | 0.274 |
| TAAGGGTA | -0.262 |
| CAATAACC | 0.142 |
| GAAACAGA | 0.0157 |
| TACCCACA | -0.153 |
| TAGATTGA | 0.115 |
| CCATATCG | 0.198 |
| ACTAAGCC | 0.101 |
| ACCCTTCA | -0.0225 |
| CCTTATAG | -0.225 |
| CACAGGTA | -0.0978 |
| CTACCTAC | 0.0968 |
| CTGCCGGC | 0.339 |
| GTGGAACA | 0.0611 |

| Sequence | PBM E-score |
| --- | --- |
| AACTACTT | -0.0276 |
| CAAGCGGG | 0.133 |
| GGGGTCAC | -0.0788 |
| AGAAATTA | 0.187 |
| AGAGGAGA | -0.199 |
| CAACGAAC | 0.0598 |
| AACCGAAT | 0.165 |
| ATCTGTCA | -0.0405 |
| CTCGATTC | 0.105 |
| GCAAGTAA | 5e-05 |
| ATGGCTTC | -0.216 |
| ACTGAGAC | -0.272 |
| ATTACGCC | -0.212 |
| AAATATCC | 0.103 |
| ACGCCGAC | 0.163 |
| CGGGTGGA | 0.243 |
| TCGGTTAA | 0.223 |
| CTGCGAGC | 0.109 |
| CACCTTGG | 0.0296 |
| ACGTGGGC | -0.102 |
| GCAGGCTA | -0.23 |
| CTGCCGGA | 0.32 |
| ATTTCCGG | 0.456 |
| GTGTGGCA | -0.1 |
| ATCTTCAG | 0.0622 |

| Sequence | PBM E-score |
| --- | --- |
| AAATTGGT | 0.0397 |
| TGGTTACA | -0.197 |
| ATACCTTC | 0.00572 |
| ACCAGAAG | -0.172 |
| ACAGACTA | -0.193 |
| CAGGCCGC | 0.0618 |
| GTAAATTA | -0.22 |
| ACCTTCAG | -0.152 |
| ATTCCAAT | -0.0386 |
| AAGGCGCG | -0.122 |
| ATGCAATC | 0.0319 |
| ATGGACTA | -0.0711 |
| CGTATGAA | 0.133 |
| CTTCTTTA | -0.164 |
| CACACGAA | -0.0306 |
| AAACCCGC | 0.258 |
| ATGCCGAG | 0.224 |
| CCGGCTCA | 0.294 |
| AATGACAT | 0.0556 |
| TAAAGTAA | -0.197 |
| ACCTCAAG | -0.0979 |
| CATTGAAC | 0.0265 |
